14 molecules from publication PMC12136788 can be followed below.

The labels stand for the following.
T1: UNK ZnF1-6 (called full-length) (human, UniProt Q9C0B0 30-357)
T1 sequence: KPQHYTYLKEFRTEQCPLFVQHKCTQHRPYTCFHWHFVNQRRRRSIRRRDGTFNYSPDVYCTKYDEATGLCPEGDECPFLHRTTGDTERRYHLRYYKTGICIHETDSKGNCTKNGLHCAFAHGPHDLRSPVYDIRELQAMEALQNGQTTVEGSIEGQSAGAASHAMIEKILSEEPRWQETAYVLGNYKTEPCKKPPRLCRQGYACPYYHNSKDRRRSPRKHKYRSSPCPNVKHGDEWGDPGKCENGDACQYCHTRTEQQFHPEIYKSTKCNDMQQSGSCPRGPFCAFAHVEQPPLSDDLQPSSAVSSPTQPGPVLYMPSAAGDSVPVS

B1: chr16:75660256:75661249:-|CDS|ENSG00000284484|control|control|control (ssRNA)
RNA: GGGAGUUCUACAGUCCGACGAUCCUGGGGCAAGAUAUGCAGGUAGGGGCUUCAAGCAACUCAGGACUCAAAUGCAGCAGUUUUAGGUUGAGGGGUCUACACGGGCCUGCCACAGGAACCCAAGGAUGCAGCUUUGCAAAGUAUCAACAGAGGAUUGAGCAUCA
B2: chr10:133362484:133362867:-|three_prime_utr|ENSG00000127884|control|control|control (ssRNA)
RNA: GGGAGUUCUACAGUCCGACGAUCAACCAGCUGCCCCUGCUUCACACCUCUGCUUGGAGAGGACAAGUGCAGCCUGUCAGUUUUAGAAGCAAGUAAAUCAUCCUCUUUUCAAGAGCAGUGUCCGUGGUGUGCAGUUCCUCUCCACAACAGAGGAUUGAGCAUCA
B3: chr6:105098072:105098315:-|3pUTR|ENSG00000112276|msi1|FALSE|unique (ssRNA)
RNA: GGGAGUUCUACAGUCCGACGAUCGUACUUUAAAUUCAUUUAUACAAAUGAAUAAGUGUAUCUUUGUAUAAUGCAUAAAUACAUAGAUAAAAACAUGUUUGCUGCCAAAGUUCCCAAUAAGAUGCUUCCUGUGUUUUUUGGCCUCAACAGAGGAUUGAGCAUCA
B4: chr3:149738563:149738664:-|3pUTR|ENSG00000114744|unk|total|mutant (ssRNA)
RNA: GGGAGUUCUACAGUCCGACGAUCUGGAUUAUUAUGGGUCCUUGAUAAAUUCUCAAAGCCUUUUUUUUUGUUCAUCUCUAAAACCGGAAUACCGGAUUACCUACCACAUUGACUCGUAAGGACUAUAUGAGACCAUGUAUACCGCAACAGAGGAUUGAGCAUCA
B5: ENSG00000198589:be:win_3951|CDS|ENSG00000198589|bound_else_gene|NA|bound_elsewhere_windowed (ssRNA)
RNA: GGGAGUUCUACAGUCCGACGAUCUUUGCUCACUGAUCUAUUAUUUUCAAUAGAAACAGAUAUACAGAUGUGGAGAAGCCAUUCAACAAAGACAGUUAUGGACUUCGUGAAUAGCAGUGAUAAUGUCAUCUUUGUACACAACACCAACAGAGGAUUGAGCAUCA
B6: ENSG00000107863:be:win_1151|CDS|ENSG00000107863|bound_else_gene|NA|bound_elsewhere_windowed (ssRNA)
RNA: GGGAGUUCUACAGUCCGACGAUCUAGACUGGAAAAACUAUAAAACUUACAAAGAGUAUAUUGAUAACAGACGAUUGCACAUAGGUUGUCGGACAAUACAAGAAAGAUUAGAUAGUUUAAGAGCAGCAUCUCAAAGCACGACAGCAACAGAGGAUUGAGCAUCA
B7: chr6:43013266:43013367:-|CDS|ENSG00000124733|msi1|total|mutant (ssRNA)
RNA: GGGAGUUCUACAGUCCGACGAUCAUCCCUGUCCUACCGCCUCCCUGUUCUUGCAGCCCCUGCCCGGAUGGCAACAGCCGUUCCCGGAGGAGACACCAUGGGCCCUGAGCGUAUCUUCCCCAAUCAGACUGAGGAACUGGGACACAACAGAGGAUUGAGCAUCA
B8: chr22:36281679:36281692:-|3pUTR|ENSG00000100345|msi1_unk|total|mutant (ssRNA)
RNA: GGGAGUUCUACAGUCCGACGAUCUCUUGUGUCUACUCCCGGACUGGGCCCGAGGGUGGUUUACCUGCACCGUUGACUCAGUACCGUUUAAAAAUCUGCCACCUGCACAGGUAUUUUUGAAAGCAAAAUAAGGUUUUCUUUUUUCAACAGAGGAUUGAGCAUCA
B9: chr1:54043363:54043464:-|CDS|ENSG00000116209|msi1|total|mutant (ssRNA)
RNA: GGGAGUUCUACAGUCCGACGAUCCGCACAGAGCUUCAUAACCUCUUCAUGGACUUUUUAUCUUCAAGCCGAUGACGGAAAAACCGUUAUAUUCCAGGUGACAACUGAGCUUCAUGGAUUCAUCUAAAUACUAACAACAGUAAACAACAGAGGAUUGAGCAUCA
B10: chr8:9779869:9779970:+|3pUTR|ENSG00000173273|msi1|total|mutant (ssRNA)
RNA: GGGAGUUCUACAGUCCGACGAUCGGAAUUUCCCGCUUUUCAAGCAGCAUAAGCCGAAUCAACAUCCGGAUGUUUUCAUGAAACCGCAUCCUUAUACUUCUUUGAGCUUGAUGUCCGUGGCCCGACUGAUUUCCCUUUGCUCUCCAACAGAGGAUUGAGCAUCA
B11: ENSG00000181610:stop:overlap|stop_codon|ENSG00000181610|stop_codon|NA|stop_codon (ssRNA)
RNA: GGGAGUUCUACAGUCCGACGAUCGACGAGUAGGCGAAGCAAGGACUGUGAGUAUUUCAUUGUUAAAAUUGUUACUGGGUUUAUAGUUGUCCCUCAGUAUGCACAGGGGAUUGGUGCUAGGGCCCCUGCAGAUACCAAUAUUCACAACAGAGGAUUGAGCAUCA
B12: chr3:100728682:100728848:+|CDS|ENSG00000114354|unk|total|mutant (ssRNA)
RNA: GGGAGUUCUACAGUCCGACGAUCUAAUGGCCAGCCAAGACCCCUUGAAUCAAGUCAGGUGAAAUAUCUCCGUCGAGAACUGACCGAACUUCGAAAUAAAGUGAAUCGUUUAUUGGACCGCUUGGAACCACCUGGAGAACCAGGCAACAGAGGAUUGAGCAUCA
B13: chr1:17067933:17068034:-|3pUTR|ENSG00000117115|msi1|total|mutant (ssRNA)
RNA: GGGAGUUCUACAGUCCGACGAUCACAUAAGGACCCUGGCCUACCCUCCAGCCCAACAGCCAGUUCUGGGUCAGCUGCCAACUCCGGGGUGGUUUGAUUAUCCCAUUGAAAUUCACCAGUGCCUUUGCCAAAGACCCUCUCAUUCAACAGAGGAUUGAGCAUCA
B14: chr14:55048714:55048815:+|3pUTR|ENSG00000180008|msi1|total|mutant (ssRNA)
RNA: GGGAGUUCUACAGUCCGACGAUCUUUCUAAUUUUGAACAGAUGACUCAGUCCUAAAUCUUUGCCUUUAUUUCCUAUAAAAUGCCGGUGAUACUUGUAACUCGACUUCCUGGAGUUAAUUCUUCAGCAAGAGGUGACCCUGGGACAACAGAGGAUUGAGCAUCA

The list shows a part of the results.

For the assay, the target named is T1, UNK ZnF1-6 (called full-length). Put plainly: nsRBNS (natural sequence RNA bind-n-seq); RBNS binding buffer (assumed for nsRBNS): 25 mM Tris pH 7.5, 150 mM KCl, 3 mM MgCl2, 0.01% Triton X-100, 500 ug/ml BSA, 20 U/ml SUPERase-In, 4 C; UNK is unkempt and MSI1 is Musashi-1; names of the RNAs are library labels; protein concentration not given here; high values mean tight binding.
As to B1, the binding signal is 1.02 enrichment R.
Then B2, with 0.89 enrichment R.
Then B3, with 0.555 enrichment R; and B4, with 0.422 enrichment R.
Then B5, with 0.461 enrichment R.
On to B6, for which the binding signal is 1.36 enrichment R.
The molecule B7 showed a binding signal of 0.886 enrichment R.
Then B8, with 0.546 enrichment R; and B9, with 0.262 enrichment R.
Then B10, with 0.433 enrichment R.
Consider B11, for which the binding signal is 1.18 enrichment R.
The value for B12 was 0.409 enrichment R.
Then B13, with 0.749 enrichment R; and B14, with 0.373 enrichment R.
